From article PMC4336329 (PLoS ONE, 2015)
Screen size: about 310,000 compounds; about 2,200 (0.71%) showed an effect of 50% or more. The effect is printed as a negative number. The list shows a part of the results.

Molecular target: human ether-à-go-go-related gene (hERG) potassium channel (human, UniProt Q12809)
Assay: primary screen, population patch clamp on CHO cells stably expressing hERG

Sequence of human ether-à-go-go-related gene (hERG) potassium channel (Q12809 whole entry, looked up): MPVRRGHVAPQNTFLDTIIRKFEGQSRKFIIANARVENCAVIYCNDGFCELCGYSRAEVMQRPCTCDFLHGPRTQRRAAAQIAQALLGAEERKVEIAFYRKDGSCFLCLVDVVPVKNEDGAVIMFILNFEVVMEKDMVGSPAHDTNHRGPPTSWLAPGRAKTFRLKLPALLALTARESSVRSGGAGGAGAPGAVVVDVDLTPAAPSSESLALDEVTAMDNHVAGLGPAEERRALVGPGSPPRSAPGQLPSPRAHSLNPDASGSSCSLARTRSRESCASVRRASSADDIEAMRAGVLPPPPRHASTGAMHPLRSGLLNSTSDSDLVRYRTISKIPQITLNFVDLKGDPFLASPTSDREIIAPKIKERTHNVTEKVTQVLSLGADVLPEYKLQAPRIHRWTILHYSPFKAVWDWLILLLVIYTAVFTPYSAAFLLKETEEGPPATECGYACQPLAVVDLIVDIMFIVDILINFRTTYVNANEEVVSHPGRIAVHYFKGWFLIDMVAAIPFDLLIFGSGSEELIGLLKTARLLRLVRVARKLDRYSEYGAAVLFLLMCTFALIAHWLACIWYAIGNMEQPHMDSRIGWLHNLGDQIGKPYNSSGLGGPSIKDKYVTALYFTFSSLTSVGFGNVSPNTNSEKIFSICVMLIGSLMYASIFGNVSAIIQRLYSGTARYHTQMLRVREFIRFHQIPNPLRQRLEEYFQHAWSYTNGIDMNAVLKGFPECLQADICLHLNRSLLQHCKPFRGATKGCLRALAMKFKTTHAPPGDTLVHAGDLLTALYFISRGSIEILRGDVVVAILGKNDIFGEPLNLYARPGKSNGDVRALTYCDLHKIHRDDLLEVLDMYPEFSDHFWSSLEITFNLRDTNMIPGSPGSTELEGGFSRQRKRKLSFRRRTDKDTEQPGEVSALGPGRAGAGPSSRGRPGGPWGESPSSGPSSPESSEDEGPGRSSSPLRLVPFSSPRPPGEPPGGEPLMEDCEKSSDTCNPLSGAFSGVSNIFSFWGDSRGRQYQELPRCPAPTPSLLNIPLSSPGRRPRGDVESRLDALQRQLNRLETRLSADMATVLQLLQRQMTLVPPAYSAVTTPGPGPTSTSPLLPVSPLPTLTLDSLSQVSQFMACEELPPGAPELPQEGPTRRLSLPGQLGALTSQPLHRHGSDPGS

Structure (SMILES)	hERG current change (%, negative = inhibition) at 1uM [%]
C/C(=N\NC(=O)C1COc2ccccc2O1)c1ccc(N2CCOCC2)cc1 (centres unmarked)	6.29
O=C(O)C(=O)O.O=[N+]([O-])c1cccc(CN2CCN(Cc3ccc(Cl)cc3)CC2)c1	-27.2
CCN(CC(=O)NC1CCS(=O)(=O)C1)Cc1nc2c(Br)cc(Br)cc2c(=O)[nH]1 (centres unmarked)	15.4
Cc1c(=O)n(OCc2ccc(Cl)cc2)c2ccccc2[n+]1[O-]	21.9
CCc1c(C)sc(NC(=S)Nc2cccnc2)c1C(=O)OC	6.46
CCOC(=O)c1cc2nc(Nc3ccc(OC)cc3)sc2s1	1.31
CSc1cccc(NC(=O)COC(=O)c2ccccn2)c1	-4.49
Cc1ccc(C)c(NC(=O)CN(C)C(=O)[C@@H](NC(N)=O)C(C)C)c1	10.1
Cc1ccc(NC(=O)c2cnccn2)c(Br)c1	14.7
CCn1c(CCNC(=O)c2ccco2)nc2ccccc21	11.3
COC(c1ccccc1)c1c(-c2ccccc2)nn(C)c1Cl (centres unmarked)	7.94
COCCNC(=O)C(c1cccs1)N(C(=O)Cn1nnc2ccccc21)c1ccc(OC)cc1 (centres unmarked)	13.6
CC(C)C(=O)Nc1cccc(C(=O)Nc2nncs2)c1	6.79
CCCN1CCC(=O)N([C@H](CO)CC(C)C)CC1	20.4
COC(=O)COc1cc(OCC(=O)OC)c2c(C)c(Cl)c(=O)oc2c1	13.2
CCCNC(=O)N1[C@H]2CC[C@@H]1C(C(=O)OC)=C(c1ccc(OC(F)(F)F)cc1)C2	-0.757
CC(NS(=O)(=O)c1ccc(Br)cc1)c1ccccc1 (centres unmarked)	12.3
CC(C)c1[nH]c(=O)c(C#N)c2c1CSC(C)(C)C2	6.8
Cc1cccc(C(=O)Nc2nnc(COc3ccccc3)s2)c1	9.7
CC(=O)N(Cc1ccco1)c1nc(C(=O)Nc2ccc(Cl)cc2)c(C)s1	7.14
Cc1ccccc1CSCCC(=O)NCCC1=CCCCC1	3.92
O=C1CCN(S(=O)(=O)c2ccc(Cl)cc2)N1	9.36

Structure (SMILES)	hERG current change (%, negative = inhibition) at 1uM [%]
Cc1cc(=O)oc2cc(NC(=O)CCOc3ccccc3)ccc12	13.5
COc1ccc(OC)c(C(=O)Nc2c(O)ccc3ccccc23)c1	14.2
Cc1ccc(NS(=O)(=O)c2ccc3c(c2)CCN3C(=O)CCC(=O)O)cc1Cl	17.9
Cc1ccc(NC(=O)CCNS(=O)(=O)c2ccc3[nH]c(=O)oc3c2)cc1C	8.64
CC(=O)N1c2ccc(S(=O)(=O)NCCC(=O)NCc3ccc(Cl)cc3)cc2CC1C (centres unmarked)	9.6
Cc1ccccc1C(=O)Nc1ccc(S(=O)(=O)N2CCCC2)cc1	-6.35
Cl.O=C(CSc1nc2ccc(Cl)cc2[nH]1)c1cccs1	8.42
CC(=O)c1sc(NC(=O)CCOc2ccccc2)nc1C	8.12
O=C(OCCn1cncn1)c1cc2ccccc2oc1=O	13.1
CCOC(=O)c1cc(S(=O)(=O)NCCc2ccccc2)cn1C	19.6
CC(=O)Nc1ccc(S(=O)(=O)Nc2nc3ccccc3nc2Sc2nncn2C)cc1	11.8
CC(=O)N1CCN(S(=O)(=O)c2cccc(C(=O)NNC(=O)COc3ccc(Cl)cc3C)c2)CC1	-10.6
CCn1c(SCC(=O)N2CCOCC2)nc2ccccc21	9.11
Cn1c(-c2sc(=S)n(-c3ccccc3)c2N)nc2ccccc21	-1.58
O=C(CN(c1ccccc1)S(=O)(=O)c1ccccc1)Nc1ccccc1C(=O)NCc1ccco1	9.58
CCCCc1nnc(NC(=O)C2CCCO2)s1 (centres unmarked)	10.7
COc1ccc(C(C)=O)cc1CSc1nnc(Nc2c(C)cccc2C)s1	-24.5
O=C(O)c1ccc(-c2noc(-c3cccc(C(F)(F)F)c3)n2)cc1	17.7
CC(C)c1ncc(C(O)c2ccccc2)n1C (centres unmarked)	10.3
COc1ccc(N2CCN(CCCNC(=O)C3(S(=O)(=O)c4ccc(Cl)cc4)CC3)CC2)cc1	-46.7
COc1ccc(CN2CCN(CC3CC3)CC2CCO)c(C)c1C (centres unmarked)	13.2
CC(C)OCCCNC(=S)N1CCC(C(=O)c2ccc3c(c2)OCCO3)CC1	1.43
